# ± gives the standard deviation of the averaged measurements. Whole data set: some 33,000 sequences, median “E-score (dimensionless, -0.5 to 0.5)” near -0.046, cut for the highest 2% near 0.36. Some of the results follow.
# Test system: T1, SpTbr T-box DNA-binding domain (GST fusion)
# T1 sequence: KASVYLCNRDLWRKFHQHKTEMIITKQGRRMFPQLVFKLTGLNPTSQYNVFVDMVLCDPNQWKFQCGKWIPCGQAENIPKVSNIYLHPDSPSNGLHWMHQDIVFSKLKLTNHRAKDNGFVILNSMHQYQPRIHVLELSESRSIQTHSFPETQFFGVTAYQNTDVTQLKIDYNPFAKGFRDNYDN
# Assay: PBM E-score of 8-mer (E-score (dimensionless, -0.5 to 0.5)); Tbr is Tbrain of the sea star Patiria miniata (Pm) or the sea urchin Strongylocentrotus purpuratus (Sp); higher = stronger binding preference; most listed sequences are background and not binding sites
# Conditions: the construct has about 5 more residues each side
# Method in brief: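 GST-fused Tbr T-box DNA-binding domains (the whole T-box plus about five flanking residues) were expressed in BL21 E. coli at 20 °C and purified by glutathione affinity chromatography. Universal Agilent oligonucleotide arrays were made double-stranded by primer extension, incubated with 200 nM protein in PBS (pH 7.5), then scanned and quantified. Every ungapped 8-mer was scored from probe intensities. The Universal PBM Analysis Suite gave each word an enrichment E-score, averaged over duplicate arrays.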
row,Sequence,PBM E-score of 8-mer
1,CCGAGTAG,-0.197 ± 0.044
2,ATCCCGGG,-0.0384 ± 0.033
3,CAGCTGAA,-0.0943 ± 0.019
4,AGTACCCA,-0.09716 ± 0.00044
5,CTGCTCCC,-0.017 ± 0.0026
6,TCCTTAAA,-0.212 ± 0.074
7,AAAAGCTA,-0.128 ± 0.061
8,ATAAAGTA,-0.123 ± 0.08
9,CACCCTCA,0.231 ± 0.047
10,GGGTTTTA,-0.234 ± 0.057
11,ACGCCCGG,0.147 ± 0.045
12,CGGGGCTA,-0.315 ± 0.0072
13,AAGTCTTG,0.133 ± 0.013
14,CTTTACTC,0.0468 ± 0.055
15,CATACATG,-0.142 ± 0.011
16,GGGCGCGA,0.422 ± 0.031
17,CTCCAAGC,0.00859 ± 0.0076
18,AGAGGAAG,-0.159 ± 0.013
19,CAGCCTCC,-0.239 ± 0.021
20,ATGTTACG,0.116 ± 0.025
21,ACTCGCAA,0.258 ± 0.018
22,AAATCACG,0.197 ± 0.038
23,CCCTCAGC,-0.157 ± 0.023
24,CCCGCGGC,0.0336 ± 0.044

row,Sequence,PBM E-score of 8-mer
1,GGCCTCAA,-0.198 ± 0.061
2,AGCCCCGG,-0.443 ± 0.074
3,GATCAACA,0.175 ± 0.013
4,CGTGAGAC,0.2491 ± 0.0021
5,AAACCTGG,0.0197 ± 0.059
6,CACGAGCA,-0.0317 ± 0.036
7,TCCGCAGA,-0.202 ± 0.046
8,ATCCGCGC,0.267 ± 0.032
9,AATCTCGG,-0.104 ± 0.036
10,GTAAGACA,-0.047 ± 0.0024
11,TATTTAAA,-0.0758 ± 0.063
12,AATTGCAC,0.23 ± 0.07
13,AGTTCCAA,-0.125 ± 0.032
14,GGGACCGA,-0.208 ± 0.055
15,GGTATTAC,-0.132 ± 0.05
16,CGTACTGC,-0.117 ± 0.052
17,AATACCCA,-0.179 ± 0.047
18,AAACAAGG,-0.07 ± 0.073
19,CATTGGGG,-0.0924 ± 0.024
20,CAGGGTTC,-0.0176 ± 0.035
21,ATCCATTC,-0.137 ± 0.018
22,AAAGCGAA,-0.0892 ± 0.0045
23,AGTCTAGG,-0.211 ± 0.11
24,AGGGGCAA,-0.0853 ± 0.061

row,Sequence,PBM E-score of 8-mer
1,AAGTGATG,0.237 ± 0.02
2,AGTGTTGA,0.351 ± 0.006
3,GCACCGAA,-0.0295 ± 0.034
4,AATTCGAG,-0.045 ± 0.00036
5,CCATTTAA,-0.0291 ± 0.0095
6,ATCCTTGG,-0.231 ± 0.11
7,AGAAAAAA,-0.0087 ± 0.017
8,CACTCAGC,0.0954 ± 0.064
9,ACTTCTCG,0.214 ± 0.0043
10,AACTCGTC,0.134 ± 0.019
11,AAGTTGAG,0.0359 ± 0.094
12,GGATTCGA,-0.13 ± 0.018
13,AAGACTGT,-0.188 ± 0.056
14,CAGGTCGA,0.1155 ± 0.00032
15,ACGAAACC,-0.0634 ± 0.12
16,CGCGATGC,0.116 ± 0.016
17,CTTCTCCA,-0.157 ± 0.023
18,CATATCGG,-0.153 ± 0.049
19,AGTTCCCA,-0.0324 ± 0.023
20,ACAGGTGA,0.373 ± 0.0074
21,AGGGTCCG,-0.136 ± 0.015
22,CAGGACGC,-0.0113 ± 0.052
23,TGTGTCAA,0.398 ± 0.011
24,CAAATATA,-0.222 ± 0.045

row,Sequence,PBM E-score of 8-mer
1,CAGGGGGC,-0.114 ± 0.056
2,AGCGGTAG,0.0117 ± 0.066
3,GCCCGCGA,0.0846 ± 0.054
4,GTCCTGGA,-0.341 ± 0.011
5,AAAATCGG,-0.22 ± 0.0073
6,ACCTGTAT,0.126 ± 0.014
7,CCGCGTTC,-0.0537 ± 0.041
8,GACGATGA,0.0245 ± 0.045
9,GAAAAATC,0.143 ± 0.015
10,GACGTTTA,-0.121 ± 0.009
11,CTGTCTAC,0.0474 ± 0.092
12,ACTGGCCG,0.0362 ± 0.019
13,AGGATGTA,-0.156 ± 0.0079
14,ATAGAAGC,-0.319 ± 0.016
15,CGTAGAAC,-0.15 ± 0.0061
16,AACTCACC,0.0474 ± 0.0032
17,ACAATCTC,0.191 ± 0.02
18,GTTTGAGA,-0.103 ± 0.031
19,CAGTACCG,-0.144 ± 0.0067
20,TAAGCAAA,-0.0444 ± 0.065
21,GCAACGGA,-0.0911 ± 0.046
22,GAGCAGCC,-0.1533 ± 0.00017

# Source: the supplement of paper PMC4166925
